Experimental data taken from PubChem BioAssay AID1745853 (National Center for Advancing Translational Sciences (NCATS), 2022).
The list shows a part of the results. These are further read-outs of the screen, such as a control signal, another cell line or another target. No call is given for them.

Key:
Test in all cases: Primary Screen for Target Class Profiling of Small Molecule Inhibitors of Methyltransferases
[1] = biological target: Glycine N-methyltransferase (Homo sapiens) (UniProt Q14749); settings: purified enzyme, MTase-Glo SAH luminescence; measured here: GNMT inhibition; at 40 µM; stronger effect = lower value
Excerpt: (§1) PI: Matthew D. Hall Ph.D. and Quinlin M. Hanson Ph.D.
(§2) National Center for Advancing Translational Sciences (NCATS)
(§3) National Institute of Health (NIH), Rockville, MD
(§4) Target class profiling (TCP) is a chemical biology approach amenable to investigating understudied biological targets. TCP is achieved by developing a generalizable assay platform and applying it to screen a curated set of compound libraries against representative members of a target class. Small molecule methyltransferases (SMMTase) are a subclass of methyltransferase that act on metabolites to modulate signaling pathways, metabolize xenobiotics, or balance the available methyl pool. We screened four curated libraries totaling 27,574 unique compounds against the SMMTases nicotinamide N-methyltransferase (NNMT), phenylethanolamine N-methyltransferase (PNMT), histamine N-methyltransferase (HNMT), glycine N-methyltransferase (GNMT), catechol O-methyltransferase (COMT), and guanidinoacetate N-methyltransferase (GAMT). The data generated by this TCP can be leveraged for informed tool molecule development. For example, in the associated publication we identified a chemotype of HNMT-selective inhibitors. Additionally, we identified a putative SMMTase-selective inhibitor with potential as a tool molecule for studying broader methyltransferase biology.
(§5) High-through put screening assays were developed at the National Center for Advancing Translational Science (NCATS) for the enzymes NNMT, PNMT, HNMT, GNMT, COMT, and GAMT. Enzymatic activity was measured as a function of SAM cofactor conversion using the MTase Glo kit (Promega) for all enzymes. All assays were performed in 1536-well format with substrates and SAM concentrations at KM values. Enzyme concentration and assay timing were optimized for 10-20% SAM conversion. Initial screening of 27,574 compounds was done as single-point assays using the highest compound concentration (40 uM). […] These compounds were replated in 11-point dose response and assayed against NNMT, PNMT, HNMT, GNMT, COMT, GAMT, and a counter-assay. The IC50 and efficacy (maximal response) values were determined for each dose-response curve. These values are also accounted for in the area under the curve (AUC) values.
(§6) PROTOCOL TABLE (as described by Inglese J, Shamu CE and Guy RK. 2007)
(§7) SEQUENCE No. (e.g., 1, 2, 3, etc.); […] (e.g., Cells, Incubation, Reagent, etc.); VALUE; DESCRIPTION.
(§8) 1; Reagent; 2 uL; SMMTase Enzyme (2x) in reaction buffer, columns 1- 48.
(§9) 2; Reagent; 1 uL; SAM (4x) in reaction buffer, columns 1-48.
(§10) 3; Controls; 23 nL; DMSO in column 4; sinefungin in DMSO (0 uM - 40 uM) in 7-point 1:2 dilution series (n = 2) in column 2.
(§11) 4; Compounds; 23 nL; Columns 5-48.
(§12) 5; Reagent; 1 uL; Substrate (4x) in reaction buffer, columns 2-48.
(§13) 6; Time; 20-30 min; Incubation.
(§14) 7; Reagent; 1 uL; MTase-Glo reagent (5X), columns 1-48.
(§15) 8; Time; 30 min; Incubation.
(§16) 9; Reagent; 5 uL; MTase-Glo Detection reagent, columns 1-48.
(§17) 10; Time; 30 min; Incubation, luminescence evolution.
(§18) 11; Detection; Luminescence; ViewLux uHTS Microplate Imager (PerkinElmer).
(§19) NOTES (numbers refer to Sequence numbers above)
(§20) 1, 2, 5. White Medium Binding Greiner 1536-well plates (Cat #789175-F, Greiner Bio-One, Monroe, NC); Reaction buffer: 50 mM Tris, pH 8.0, 3 mM MgCl2, 1 mM EDTA, 50 mM NaCl, 1 mM DTT, and 0.1 mg/mL BSA. Evaporation was prevented by covering assay plates with metal lids containing holes to allow gas diffusion.
(§21) 1. Six SMMTase were profiled: HNMT, GNMT, PNMT, COMT, NNMT, GAMT
(§22) 5. The corresponding substrate was used for each enzyme: HNMT - 5.3 uM Histamine; GNMT - >500 uM Glycine; PNMT - 16.2 uM Norephinephrine; COMT - 13.7 uM Norephinephrine; NNMT - 3.8 uM Nicotinamide; GAMT - 2.5 uM Guanidinoacetate.6, 8, 10. Room temperature
(§23) 6. Final reaction conditions: 10 nM COMT, 5 uM SAM, 15 uM norepinephrine, 50 mM Tris, pH 8.0, 3 mM MgCl2, 1 mM EDTA, 50 mM NaCl, 1 mM DTT, and 0.1 mg/mL BSA; refer to tables 2 and S1 for specific timing.
8. […]

[2] = biological target: Guanidinoacetate N-methyltransferase (Homo sapiens) (UniProt Q14353); settings: purified enzyme, MTase-Glo SAH luminescence; measured here: GAMT inhibition; at 40 µM; stronger effect = lower value
Excerpt: as §1, §2, §3, §4, §5, §6, §7, §8, §9, §10, §11, §12, §13, §14, §15, §16, §17, §18, §19, §20, §21, §22, §23
8. […]

[3] = biological target: Histamine N-methyltransferase (Homo sapiens) (UniProt P50135); settings: purified enzyme, MTase-Glo SAH luminescence; measured here: HNMT inhibition; at 40 µM; stronger effect = lower value
Excerpt: as §1, §2, §3, §4, §5, §6, §7, §8, §9, §10, §11, §12, §13, §14, §15, §16, §17, §18, §19, §20, §21, §22, §23
8. […]

[4] = biological target: Nicotinamide N-methyltransferase (Homo sapiens) (UniProt P40261); settings: purified enzyme, MTase-Glo SAH luminescence; measured here: NNMT inhibition; at 40 µM; stronger effect = lower value
Excerpt: as §1, §2, §3, §4, §5, §6, §7, §8, §9, §10, §11, §12, §13, §14, §15, §16, §17, §18, §19, §20, §21, §22, §23
8. […]

[5] = biological target: Phenylethanolamine N-methyltransferase (Homo sapiens) (UniProt P11086); settings: purified enzyme, MTase-Glo SAH luminescence; measured here: PNMT inhibition; at 40 µM; stronger effect = lower value
Excerpt: as §1, §2, §3, §4, §5, §6, §7, §8, §9, §10, §11, §12, §13, §14, §15, §16, §17, §18, §19, §20, §21, §22, §23
8. […]
% is scaled to controls: 0 for no effect and ±100 for the full control effect.

Compound | activity change, negative = inhibition [1] [%] | activity change, negative = inhibition [2] [%] | activity change, negative = inhibition [3] [%] | activity change, negative = inhibition [4] [%] | activity change, negative = inhibition [5] [%]
O=C(Nc1cccnn1)N1CCC(=Cc2cccc(Oc3ccc(C(F)(F)F)cn3)c2)CC1 | -2 | 2.37 | 9.74 | -26.1 | 0.602
CN(C)[C@@H]1CN(C(=O)C2CCCCC2)CC[C@@H]1CO | 4.77 | 2.44 | 2.48 | -0.797 | -2.07
CC1=C(C)C(=O)OC(C(C)(O)C2CCC3C4CC=C5CC(OC6OC(COC7OC(CO)C(O)C(O)C7O)C(O)C(O)C6O)CC(O)C5(C)C4CCC32C)C1 (stereo not given) | 2.16 | -3.94 | 8.73 | -14.9 | -2.07
CC/C=C\CCO[C@@H]1O[C@H](CO)[C@@H](O)[C@H](O)[C@H]1O | -4.03 | -6.81 | 6 | -18.6 | -5.75
O=C(Nc1cc(C(F)(F)F)cc(C(F)(F)F)c1)c1cc(Cl)ccc1O | -19.2 | 3.59 | 7.42 | -13.9 | 3.52
CCN1CCN(c2nc3c(S(=O)(=O)c4ccc(C)cc4)nnn3c3ccccc23)CC1 | -0.386 | 4.53 | -32.4 | 1.55 | 3.21
Cc1cccc(N2C(=O)c3cc(C(C)(C)C)nn3CC2(C)C(=O)NCc2ccccc2)c1C (stereo not given) | 4.89 | 0 | 4.18 | 7.11 | 1.86
CCCCCC(=O)N(c1ccc(OCC)cc1)S(=O)(=O)c1ccc2c(c1)n(C)c(=O)n2C | 3.64 | 2.96 | 8.3 | -3.71 | 3.83
COc1ccc(N2CCN(C(=O)c3cc4c(s3)-c3ccccc3S(=O)(=O)C4)CC2)cc1 | -3.05 | -14.4 | 3.05 | -28.2 | -13.6
CCOC(=O)c1cc2n(n1)CC(C)(C(=O)NCCOC)N(c1cccc(F)c1)C2=O (stereo not given) | 7.74 | 0 | 11 | 5.72 | 5.82
CCN1CCN(C(=O)C2CCCN(Cc3cccnc3)CCC(=O)NCC2)CC1 (stereo not given) | -1.89 | 0.863 | 0.528 | 4.88 | 1.15
C/C=C/C=C/C=C/C(=O)O[C@@H]1[C@@H](OC)C2=C(C(=O)N(C(CCC(=O)O)C(=O)O)C2)[C@@]2(C)CCCC(C)(C)[C@H]12 (stereo not given in full) | -14.5 | -3.82 | 6.26 | -13.3 | 0.939
Cc1nnc([C@@H]2CC(F)(F)CN2C(=O)COc2ccccc2)o1 | -0.79 | -0.774 | 2.65 | -8.84 | 1.04
Cc1ccc(NC(=O)CSc2nnc3n(CCC(C)C)c(=O)c4ccccc4n23)cc1 | -1.81 | 0 | 5.77 | -1.2 | 3.59
CC(=O)OC1C(c2ccccc2)CCC(c2ccccc2)C1OC(C)=O (stereo not given) | 0 | 6.51 | 7.78 | -6.91 | 2.23
CN1CCC(C(=O)NCc2c[nH]c3ncccc23)CC1 | -5.17 | -6.36 | -13.5 | -9.6 | -2.38
Cc1noc(C)c1CC(=O)N1CC[C@@H](NC(=O)c2cnccn2)[C@H](O)C1 | -4.88 | -11.3 | -4.63 | -18.6 | -14.7
COc1cc(/C=C/C(=O)OC[C@H]2O[C@@](CO)(O[C@H]3O[C@H](CO)[C@@H](O)[C@H](O)[C@H]3O)[C@@H](OC(=O)/C=C/c3ccc(O)c(OC)c3)[C@@H]2O)ccc1O | 0 | -2.94 | 8.64 | -15.3 | -7.58
Cc1cc(Cl)ccc1NC1CN(C(=O)OC(C)(C)C)C1 | 0.554 | -6.05 | 3.42 | -4.13 | -0.04
